# ChEMBL document CHEMBL1201862, “PubChem BioAssay data set” (2004)
#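 Five compound concentrations were applied to cells in 96-well plates for 48 hours; endpoints were derived by simple linear interpolation of the resulting dose-response curve. GI50 = concentration required for 50% inhibition of growth.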 Active and inactive are the calls of the source. Rule as the data show it: active = GI50 up to about 1.1 µM and inactive = higher.
# Test system: NCI-H322M
# Assay: inhibition of tumour cell growth, NCI panel, 48 h
row,Compound,GI50
1,C/C(=N\NC(=S)N/N=C(\C)c1ccccn1)c1ccccn1,inactive: 4.43 µM
2,CN(C)[C@@H]1C(O)=C(C(=O)NCNc2nc3[nH]nnc3c(=O)[nH]2)C(=O)[C@@]2(O)C(O)=C3C(=O)c4c(O)cccc4[C@@](C)(O)[C@H]3C[C@@H]12,inactive: 33.5 µM
3,COc1cccc2c1C(=O)c1c(O)c3c(c(O)c1C2=O)C[C@@](O)(C(=O)CO)C[C@@H]3OC1CC2C(OCN3CN2COC2C(C)OC(O[C@H]4C[C@](O)(C(=O)CO)Cc5c(O)c6c(c(O)c54)C(=O)c4c(OC)cccc4C6=O)CC23)C(C)O1 (stereo not given in full),active: 0.1 µM
4,N#CC1(C2SCC[S+]2[O-])C2=C(C(=O)c3ccccc3C2=O)N2CCCC21 (stereo not given),inactive: 3.44 µM
5,C[C@@H]1OC(=O)C[C@H]2CC(=O)N(CCC3CN(C(=O)OCc4ccccc4)c4ccccc43)C[C@@H]21 (stereo not given in full),inactive: > 100 µM
6,COc1cc2c(c(O)c1C)C(=O)C(Cl)=CC2=O,inactive: 17.1 µM
7,N#C/C(=C/c1cccc2ccccc12)C(=O)c1ccccc1,inactive: > 100 µM
8,CC(C)OP(=O)(CCCCCCCCC/C=C/c1ccc2c(c1)OCCOCCOCCOCCO2)OC(C)C,inactive: 3.33 µM
9,CCC1(O)C=CC(=O)C=C1,inactive: 39.2 µM
10,COc1ccc(/C(Cl)=C(\c2ccc(OCCN(C)C)cc2)c2ccc(OC(=O)C(C)(C)C)cc2)cc1,inactive: 14.9 µM
11,O=C1c2ccccc2C2CNC1(O)c1ccccc12 (stereo not given),inactive: > 100 µM
12,O=C1Nc2ccccc2C(=O)O/C(Cc2ccccc2)=N\c2ccccc21,inactive: > 100 µM
13,CCN(CC)CCN(C)c1ccc(CO)c2c1c(=O)c1ccccc1[s+]2[O-] (stereo not given),inactive: 7.03 µM
14,O=C(/C=C/c1ccc(Cl)cc1)c1ccc(Cl)s1,inactive: > 100 µM
15,CCCCC(C(=O)C(=O)Nc1ccccc1CC)C(=O)C(C)C (stereo not given),inactive: > 100 µM
16,O=C1CCc2ccc(O)c(c2)Oc2ccc(cc2)C(Sc2ccccc2)CCO1 (stereo not given),inactive: 11.6 µM
17,CC(=O)n1cc(C2CC23N=C(c2ccccc2)OC3=O)c2ccccc21 (stereo not given),inactive: 38.6 µM
18,COC(=O)NC(Nc1ccc(Cl)cc1Cl)(C(F)(F)F)C(F)(F)F,inactive: > 100 µM
19,O=C(C1=CCC2(CC1)OCCO2)N(Cc1ccccc1)c1ccccc1I,inactive: 18 µM
20,O=C(/C=C/c1ccc(OCc2ccccc2)cc1)NCc1ccc(C(=O)NCCc2c[nH]c3ccccc23)cc1,inactive: 47.8 µM
21,O=C(CNc1ccc2c(=S)c3ccccc3[nH]c2c1)Nc1ccccc1-c1ccccc1NC(=O)CNc1ccc2c(=S)c3ccccc3[nH]c2c1,inactive: 22 µM
22,CCCC(=O)Nc1cc(/C=C/C(=O)N2C[C@@H]3C[C@]34C2=CC(=O)c2[nH]cc(C)c24)n(C)c1,active: 0.414 µM
23,Fc1ccc(/N=C2C=C/C(=N\c3ccc(F)cc3)c3ccccc3\2)cc1,inactive: > 100 µM

row,Compound,GI50
1,C/C(=N\Nc1nc2ccccc2[nH]1)c1ncccn1,active: 0.042 µM
2,CC1(C(=O)O)CCOc2ccccc21 (stereo not given),inactive: > 100 µM
3,Nc1ncnc2c1ncn2C1(CO)OC(CO)C(O)C1O (stereo not given),inactive: > 100 µM
4,COC(=O)/N=[N+](\[O-])C(c1ccc(Cl)cc1)c1ccc(Cl)cc1,inactive: 34.2 µM
5,CCCCCNC(=O)C1C(=O)N(CCCCC)C(=O)/C1=N\N (stereo not given),inactive: > 100 µM
6,COCOCCC#CCO,inactive: > 100 µM
7,COc1cc(Br)c(/C=N/N=C(\N)NO)cc1OC,inactive: 4.62 µM
8,COc1ccc2c(c1)OC(c1cccnc1)C(c1ccccc1)C2=O (stereo not given),inactive: > 100 µM
9,Cc1cccc(NC(=O)CC(=O)N2N=C(N3c4ccccc4Sc4ccccc43)CC2c2ccccc2)c1 (stereo not given),inactive: > 100 µM
10,CCCCCCCCP(=O)(O)OP(=O)(O)OCC1OC(n2ccc(N)nc2=O)C(O)C1O (stereo not given),inactive: > 100 µM
11,CCOC(=O)/C(C)=C(/O)C(=O)OCC,inactive: > 100 µM
12,Cc1cc(-c2ccc(/N=N/c3ccc4c(S(=O)(=O)O)cc(S(=O)(=O)O)c(N)c4c3O)c(C)c2)ccc1/N=N/c1ccc2c(S(=O)(=O)O)cc(S(=O)(=O)O)c(N)c2c1O,inactive: > 100 µM
13,CCOP(=O)(O)CN1CCNCCN(CP(=O)(O)OCC)CCNCC1,inactive: > 100 µM
14,C=C1CC(OC)(C(O)C(=O)N[C@H]2OCO[C@H]3C2O[C@H](C[C@H](O)COC)C(C)(C)C3OC)O[C@H](C)[C@@H]1C (stereo not given in full),active: < 0.00773 µM
15,COC(=O)CC(C(C(C)=O)C(=O)OCc1ccccc1)N1C(=O)OC(c2ccccc2)C1c1ccccc1 (stereo not given),inactive: > 100 µM
16,CO[C@H](C(=O)O[C@H]1C(=O)N2CC[C@@H]3CCC[C@H]1C32C)c1ccccc1 (stereo not given in full),inactive: > 100 µM
17,COc1ccc(Cc2cc(OC)c(OC)c(OC)c2)cc1,active: 0.453 µM
18,Nc1ncnc2c1ncn2C=C=CCO,inactive: > 100 µM
19,N#C/C(=C1\N=NC(N)=C(c2ccc(Cl)cc2)C1=O)c1ccc(Cl)cc1,inactive: > 100 µM
20,CCc1nc(N)nc(N)c1-c1ccc(N(C)Cc2ccccc2)c([N+](=O)[O-])c1,active: 0.184 µM
21,CC(C)(O)C(O)COc1c2c(cc3oc(=O)ccc13)OCO2 (stereo not given),inactive: > 100 µM
22,CN(C)CCN(C)c1ccc2c(=O)n(CCN(C)C)c(=O)n3c4ccccc4c(=O)c1c23,active: 0.555 µM
